No constants are given. Whether binding was seen depends on the method and setting. Binding seen in cells or lysates may run through a third protein. Some entries that bind do so weakly or less than the wild type. Where a sequence is shown, tags or fusion partners need not be part of it.
Legend:
[1] = target: deleted in colorectal cancer (DCC), EmGFP-tagged (human) (UniProt P43146); experiment: co-IP; HEK293 cells expressing three proteins together (EmGFP-DCC, FLAG-FEZ1, Myc-Stx1); HEPES lysis buffer with 1% Triton X-100; GFP-Trap; immunoblot
[2] = target: CRMP1 (amino acids 1-462), N-terminal and central amidohydrolase family domain, EmGFP-tagged (human) (UniProt Q14194); experiment: co-IP; HEK293 cells co-expressing the two tagged proteins, 24 h after transfection; lysis and washes in 50 mM HEPES, 150 mM NaCl, 1 mM EDTA, 1% Triton X-100, pH 7.2; GFP-Trap agarose beads 1-3 h at 4°C; immunoblot
[3] = target: CRMP1 (amino acids 465-572), C-terminal region, EmGFP-tagged (human) (UniProt Q14194); experiment: as above
VAMP2, GFP-tagged = VAMP2, GFP-tagged (UniProt P63045); experiment: as above
[4] = target: collapsin response mediator protein 1 (CRMP1), full-length, EmGFP-tagged (human) (UniProt Q14194); experiment: as above

Amino acid sequences for entries named in this document (tags omitted). A change or cut given only in a name is not applied to a line headed by its entry. Chains listed by the source or under a name are the forms on record and can include a tag or linker. Residues count along the entry.
UniProt P43146, residues 26-1447: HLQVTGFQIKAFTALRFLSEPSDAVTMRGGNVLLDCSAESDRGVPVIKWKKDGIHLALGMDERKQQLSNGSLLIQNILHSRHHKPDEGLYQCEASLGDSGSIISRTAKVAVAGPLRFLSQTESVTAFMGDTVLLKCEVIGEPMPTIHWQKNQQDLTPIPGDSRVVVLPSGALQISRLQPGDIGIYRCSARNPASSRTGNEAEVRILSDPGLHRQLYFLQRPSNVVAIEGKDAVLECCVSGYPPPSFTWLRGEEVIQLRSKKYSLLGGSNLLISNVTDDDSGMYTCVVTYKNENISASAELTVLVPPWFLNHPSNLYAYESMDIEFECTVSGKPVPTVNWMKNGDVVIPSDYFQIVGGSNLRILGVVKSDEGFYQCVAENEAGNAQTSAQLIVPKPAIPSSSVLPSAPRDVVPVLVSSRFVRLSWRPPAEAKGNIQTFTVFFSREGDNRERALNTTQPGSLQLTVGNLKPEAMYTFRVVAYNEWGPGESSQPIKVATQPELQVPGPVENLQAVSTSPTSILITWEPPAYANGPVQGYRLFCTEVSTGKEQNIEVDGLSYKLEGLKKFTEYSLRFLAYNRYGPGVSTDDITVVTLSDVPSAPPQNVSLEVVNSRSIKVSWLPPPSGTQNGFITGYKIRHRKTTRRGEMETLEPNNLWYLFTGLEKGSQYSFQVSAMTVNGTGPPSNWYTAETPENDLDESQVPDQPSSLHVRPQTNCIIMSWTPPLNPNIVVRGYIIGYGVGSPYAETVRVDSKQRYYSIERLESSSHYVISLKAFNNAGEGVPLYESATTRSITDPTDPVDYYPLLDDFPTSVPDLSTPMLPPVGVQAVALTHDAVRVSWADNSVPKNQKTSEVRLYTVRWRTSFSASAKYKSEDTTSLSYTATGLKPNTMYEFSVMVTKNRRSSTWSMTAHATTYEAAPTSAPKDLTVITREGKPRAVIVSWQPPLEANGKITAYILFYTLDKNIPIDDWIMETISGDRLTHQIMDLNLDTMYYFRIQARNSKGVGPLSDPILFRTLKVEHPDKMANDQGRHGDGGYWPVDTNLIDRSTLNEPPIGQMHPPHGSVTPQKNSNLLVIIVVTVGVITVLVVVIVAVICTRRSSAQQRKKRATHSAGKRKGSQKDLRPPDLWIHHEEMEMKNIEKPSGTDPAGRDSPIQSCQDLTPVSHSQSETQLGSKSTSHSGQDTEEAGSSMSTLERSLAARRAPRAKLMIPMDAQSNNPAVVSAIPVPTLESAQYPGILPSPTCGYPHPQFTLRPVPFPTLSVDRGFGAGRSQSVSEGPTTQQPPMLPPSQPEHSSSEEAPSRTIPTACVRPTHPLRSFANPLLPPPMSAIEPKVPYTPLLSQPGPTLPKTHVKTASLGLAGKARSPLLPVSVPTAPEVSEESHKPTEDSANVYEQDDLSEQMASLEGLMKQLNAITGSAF
UniProt Q14194: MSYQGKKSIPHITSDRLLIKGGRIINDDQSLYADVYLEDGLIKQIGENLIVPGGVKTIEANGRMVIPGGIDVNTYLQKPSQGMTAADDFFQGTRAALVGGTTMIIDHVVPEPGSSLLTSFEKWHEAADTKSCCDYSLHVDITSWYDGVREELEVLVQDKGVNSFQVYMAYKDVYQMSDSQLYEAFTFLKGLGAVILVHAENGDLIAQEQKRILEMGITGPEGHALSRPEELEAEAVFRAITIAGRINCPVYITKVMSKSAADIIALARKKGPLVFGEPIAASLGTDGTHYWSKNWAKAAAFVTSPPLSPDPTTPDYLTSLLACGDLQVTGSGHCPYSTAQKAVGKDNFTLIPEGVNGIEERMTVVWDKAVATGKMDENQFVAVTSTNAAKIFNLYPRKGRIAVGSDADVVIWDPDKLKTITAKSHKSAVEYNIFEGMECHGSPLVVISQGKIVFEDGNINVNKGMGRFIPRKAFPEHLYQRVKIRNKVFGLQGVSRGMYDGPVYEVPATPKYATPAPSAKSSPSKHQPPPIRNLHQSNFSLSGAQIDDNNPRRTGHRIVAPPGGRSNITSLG
CRMP1 (amino acids 1-462), N-terminal and central amidohydrolase family domain, EmGFP-tagged: residues 1-462 of Q14194
CRMP1 (amino acids 465-572), C-terminal region, EmGFP-tagged: residues 465-572 of Q14194
UniProt P63045: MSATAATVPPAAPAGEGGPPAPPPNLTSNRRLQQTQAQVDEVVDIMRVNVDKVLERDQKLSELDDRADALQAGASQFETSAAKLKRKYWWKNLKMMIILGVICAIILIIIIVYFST

B1: fasciculation and elongation protein zeta 1 (FEZ1), full-length, FLAG-tagged (protein, UniProt Q99689 1-392)
chain: MEAPLVSLDEEFEDLRPSCSEDPEEKPQCFYGSSPHHLEDPSLSELENFSSEIISFKSMEDLVNEFDEKLNVCFRNYNAKTENLAPVKNQLQIQEEEETLQDEEVWDALTDNYIPSLSEDWRDPNIEALNGNCSDTEIHEKEEEEFNEKSENDSGINEEPLLTADQVIEEIEEMMQNSPDPEEEEEVLEEEDGGETSSQADSVLLQEMQALTQTFNNNWSYEGLRHMSGSELTELLDQVEGAIRDFSEELVQQLARRDELEFEKEVKNSFITVLIEVQNKQKEQRELMKKRRKEKGLSLQSSRIEKGNQMPLKRFSMEGISNILQSGIRQTFGSSGTDKQYLNTVIPYEKKASPPSVEDLQMLTNILFAMKEDNEKVPTLLTDYILKVLCPT
- binding [1]: binds
- binding [2]: binds
- binding [3]: binds weakly
- binding (VAMP2, GFP-tagged): binds
- binding [4]: binds

Reference: paper PMC8174033
